Potency data for 92 molecules are collected here from PubChem BioAssay AID360 (National Center for Advancing Translational Sciences (NCATS), 2006).

In all, about 48,000 compounds went through this assay and about 550 (1.1%) were called active. Not shown: some 4% with an inconclusive outcome. Rule as the data show it: active = potency below about 15 µM; inconclusive = mostly about 16 µM to 33 µM; inactive = weaker than that. This is one part of the list. Bounds are passed on as bounds.
Potency is read from the fitted curve at half-maximal effect.

Sequence of UniProt P04062 (P04062 whole entry, looked up): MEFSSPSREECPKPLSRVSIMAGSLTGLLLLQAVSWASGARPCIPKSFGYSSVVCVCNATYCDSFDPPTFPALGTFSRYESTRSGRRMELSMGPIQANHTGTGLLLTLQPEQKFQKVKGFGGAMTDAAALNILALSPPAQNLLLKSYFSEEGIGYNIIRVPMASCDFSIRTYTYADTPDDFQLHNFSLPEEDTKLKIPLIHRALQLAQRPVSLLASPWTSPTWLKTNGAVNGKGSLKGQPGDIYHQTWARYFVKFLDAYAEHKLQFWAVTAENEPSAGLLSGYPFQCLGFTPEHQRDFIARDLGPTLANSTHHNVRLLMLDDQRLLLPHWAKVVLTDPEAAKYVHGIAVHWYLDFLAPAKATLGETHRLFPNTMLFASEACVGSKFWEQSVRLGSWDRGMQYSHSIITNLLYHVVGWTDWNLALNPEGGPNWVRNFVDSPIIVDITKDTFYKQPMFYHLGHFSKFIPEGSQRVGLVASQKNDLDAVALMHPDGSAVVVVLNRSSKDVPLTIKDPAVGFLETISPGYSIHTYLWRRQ

The assay concerns the target Lysosomal acid glucosylceramidase (Homo sapiens) (UniProt P04062). Kind of assay: Glucocerebrosidase.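 Also: the screen sought inhibitors.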 The following applies: purified enzyme, resorufin glucoside fluorescence (screen aimed at inhibitors), 20 min. Summed up:
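Wild-type enzyme at 0.2 nM final in 50mM citric acid/KH2PO4, 10mM sodium taurocholate, 0.01% tween-20, pH 5.9, with resorufin beta-D-glucopyranoside at 30 uM final. Compounds titrated, 20 min at RT, red fluorescence read; AC50 from titration.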
For `NC(=O)c1ccc(F)cc1`, the Potency was inactive: > 76.9 µM.
Turning to `CC12CN(C(=O)c3ccccc3)C3(C#N)CC1CCC23C` (configuration not stated), the Potency was inactive: > 76.9 µM.
Take `CCC(C)(C)n1nnnc1C(c1cc2cccc(C)c2[nH]c1=O)N1CCCC1` (configuration not stated): the Potency is inactive: > 76.9 µM.
For the molecule `CC(=O)Nc1ccc(S(=O)(=O)NCc2csc(C)n2)cc1`, the Potency is inactive: > 76.9 µM.
With `COc1ccc(-c2cc(C(F)(F)F)n3nc(C(=O)O)nc3n2)cc1`, the Potency was inactive: > 76.9 µM.
The value for `CCc1nc2c(cnn2-c2ccc(Cl)cc2)c(=O)n1-c1ccc2c(c1)OCCO2` was inactive: > 76.9 µM; that for `Cc1ccsc1C(=O)OCC(=O)N1CCOCC1` was inactive: > 76.9 µM; that for `O=c1c2ccccc2sn1-c1ccc(S(=O)(=O)N2CCCC2)cc1` was inactive: > 76.9 µM.
Turning to `Cc1ccc2c(C)nc(NC3=NCN(CCc4ccccc4)CN3)nc2c1`, the Potency was inactive: > 76.9 µM.
The value for `CCCCOC(=O)C(C)Nc1n[nH]c(=O)[nH]c1=O` (configuration not stated) was inactive: > 76.9 µM; that for `CC(C)(C)c1cc(C(c2cccnc2)N2CCN(CCO)CC2)cc(C(C)(C)C)c1O` (configuration not stated) was “inactive”.
Take `O=C(Nc1ccc(-n2nncc2-c2ccco2)cc1)c1ccc(F)cc1`: the Potency entry is “inactive”.
With `O=c1c2ccccc2[nH]c(=S)n1CCN1CCN(Cc2ccccc2)CC1`, the Potency is inactive: > 76.9 µM.
The value for `CCN1C(=O)c2ccc(C(=O)NCc3ccccc3)cc2C1=O` was inactive: > 76.9 µM; that for `O=C(N=c1nc2ccccn2s1)c1ccccc1` was inactive: > 76.9 µM; that for `Cn1c(SCc2nc3ccccc3s2)nnc1-c1cccs1` was inactive: > 76.9 µM.
Take `O=C(Cn1cccc1C(=O)c1ccccc1)NCCN1CCOCC1`: the Potency is inactive: > 76.9 µM.
With `COc1ccccc1N1CCN(C(=O)c2ccncc2)CC1`, the Potency is inactive: > 76.9 µM.
In the case of `O=C(C1CCC1)N1CCN(Cc2ccccc2)CC1`, the Potency is inactive: > 76.9 µM.
`Cc1cc(Oc2ccc(-c3ccccc3)cc2)n2ncnc2n1`: the Potency was inactive: > 76.9 µM.
Take `CC(C(=O)NC1=NCCS1)N1C(=O)C2CC=CCC2C1=O` (configuration not stated): the Potency is inactive: > 76.9 µM.
On to `Cc1cc(C)nc(SCc2n[nH]c(=S)n2C)n1`, for which the Potency was inactive: > 76.9 µM.
As for `COC(=O)c1sc(N)c(C(=O)OC)c1COC(=O)C1CC(=O)N(Cc2ccco2)C1` (configuration not stated), the Potency is inactive: > 76.9 µM.
Consider `CCCCOC(=O)CCn1[nH]c(=O)c2ccccc2c1=O`, for which the Potency is inactive: > 76.9 µM.
`Cn1c(C(=O)NCCCN2CCCC2=O)cc2c(=O)n3ccccc3nc21`: the Potency was inactive: > 76.9 µM.
Regarding `COc1ccccc1NC(=O)CSc1nnc(Cc2ccccc2)o1`, the Potency is inactive: > 76.9 µM.
Consider `N/C(=N/O)c1nc(N2CCCC2)nc(N(c2ccccc2)c2ccccc2)n1`, for which the Potency is inactive: > 76.9 µM.
Take `CCCNC(=O)c1c(N)n(-c2cc(OC)cc(OC)c2)c2nc3ccccc3nc12`: the Potency is inactive: > 76.9 µM.
Next, `O=C(CN1C(=O)COc2ccccc21)N1CCN(c2ccccc2F)CC1`: inactive: > 76.9 µM; `COC(=O)c1ccccc1NC(=O)CSc1nnc(-c2ccoc2C)n1C`: inactive: > 76.9 µM.
Turning to `O=C(c1ccc(Cl)cc1)c1ccccc1C(=O)N1CCOCC1`, the Potency is inactive: > 76.9 µM.
As to `COc1ccc(NC2CC(=O)N(c3ccccc3)C2=O)cc1` (configuration not stated), the Potency is inactive: > 76.9 µM.
In the case of `O=C(CN(C(=O)c1ccco1)c1cccc(F)c1)NCc1ccc(F)cc1`, the Potency is inactive: > 76.9 µM.
On to `Cc1ccc(CNC(=O)CCc2c(C)nc3ncnn3c2C)cc1`, for which the Potency is inactive: > 76.9 µM.
For the molecule `CCOC(=O)N1CCC(NC(=O)c2ccc3c(=O)n4c(nc3c2)CCCC4)CC1`, the Potency was inactive: > 76.9 µM.
With `Cc1ccc(S(=O)(=O)NCC(=O)N(CC(=O)NCC2CCCO2)Cc2ccccc2)cc1` (configuration not stated), the Potency was inactive: > 76.9 µM.
As for `CCN(C(=O)c1cn(C)c(=O)c2cc(OC)c(OC)cc12)c1cc(OC)ccc1OC`, the Potency was inactive: > 76.9 µM.
The value for `CN1C(=O)C2(OCC(COc3ccc(Cl)cc3)O2)c2ccccc21` (configuration not stated) was inactive: > 76.9 µM; that for `COC(=O)c1ccccc1NC(=O)C1CCCN(S(=O)(=O)c2ccc(F)cc2)C1` (configuration not stated) was inactive: > 76.9 µM; that for `CC(C)C(c1nnnn1C1CCCC1)N1CCN(C(=O)c2ccco2)CC1` (configuration not stated) was inactive: > 76.9 µM.
Consider `Cn1c(COc2ccccc2)nnc1SCCC(=O)Nc1ccccc1`, for which the Potency was inactive: > 76.9 µM.
As to `Cc1nc(-c2ccccc2)cc(=O)[nH]1`, the Potency was inactive: > 76.9 µM.
As for `Cn1c(=O)c(C(=O)Nc2cccnc2)c(O)c2ccccc21`, the Potency was inactive: > 76.9 µM.
In the case of `N#CCSc1nc2ccccc2c(=O)n1-c1ccccc1`, the Potency is inactive: > 76.9 µM.
Turning to `Cc1cc(C)n(-c2nc(Nc3ccccc3)nc(-n3nc(C)cc3C)n2)n1`, the Potency is inactive: > 76.9 µM.
As to `CN(C(=O)CSc1ncccc1C(=O)O)c1ccccc1`, the Potency is inactive: > 76.9 µM.
In the case of `CCN1CCN(Cc2nc(N)nc(Nc3ccc(C)c(C)c3)n2)CC1`, the Potency is inactive: > 76.9 µM.
For the molecule `CCOCCCN(CCC#N)S(=O)(=O)c1ccc(S(=O)(=O)N2CCCC2)cc1`, the Potency was inactive: > 76.9 µM.
With `Cn1c(=O)c2[nH]c(Nc3ccccc3)nc2n(C)c1=O`, the Potency is inactive: > 76.9 µM.
Consider `N#CCSc1nc2cc(C(=O)N3CCC(C(N)=O)CC3)ccc2c2nc3ccccc3n12`, for which the Potency was inactive: > 76.9 µM.
Next, `COc1ccccc1CNC(=O)CCn1c(=O)[nH]c2ccsc2c1=O`: inactive: > 76.9 µM; `O=C(c1ccc(S(=O)(=O)N2CCC(c3nc4ccccc4[nH]3)CC2)cc1)N1CCOCC1`: inactive: > 76.9 µM; `Cc1sc2nc(CN(C(=O)c3cccs3)C3CCCC3)[nH]c(=O)c2c1C`: inactive: > 76.9 µM.
`CC(C)NC(=O)C1CCN(C(=O)N(C)C)CC1`: the Potency was inactive: > 76.9 µM.
On to `NC(=O)NC(Cc1ccccc1)C(=O)O` (configuration not stated), for which the Potency was inactive: > 76.9 µM.
As for `CC1Cc2ccccc2N1C(=O)CCS(=O)(=O)c1cccs1` (configuration not stated), the Potency is inactive: > 76.9 µM.
With `NCCOc1ccccc1-c1ccccc1`, the Potency result was “inactive”.
`COc1ccc(CCNC(=O)C2CCCN2C(=O)NC2CCCCC2)cc1OC` (configuration not stated): the Potency is inactive: > 76.9 µM.
Consider `CC(=O)NC(Cc1ccccc1)C(=O)N1CCN(C(=O)c2ccco2)CC1` (configuration not stated), for which the Potency is inactive: > 76.9 µM.
Consider `O=C(NCCN1CCOCC1)c1c(F)c(F)c(F)c(F)c1F`, for which the Potency entry is “inactive”.
The value for `Cc1cc2ncn(CCOc3ccccc3C#N)c2cc1C` was inactive: > 76.9 µM; that for `O=C(CSc1n[nH]c(-c2ccccc2O)n1)N1CCCc2ccccc21` was inactive: > 76.9 µM; that for `CCn1c(=O)cc(OCC(=O)Nc2cccnc2)c2ccccc21` was inactive: > 76.9 µM.
In the case of `C=CCNC(=O)C1CC(=O)N(c2ccc(OCC(=O)Nc3cccc(OC)c3)cc2)C1` (configuration not stated), the Potency is inactive: > 76.9 µM.
The value for `O=C(NCCN1CCOCC1)c1cc(-c2ccco2)on1` was inactive: > 76.9 µM.
In the case of `Cc1nc(CCNC(=O)c2ccccc2)cs1`, the Potency is inactive: > 76.9 µM.
As to `CCS(=O)(=O)NCCc1cc2ccc(C)cc2[nH]c1=O`, the Potency is inactive: > 76.9 µM.
Consider `Cc1[nH]nc2c1C1(CCN(C(=O)OCc3ccccc3)CC1)C(C#N)=C(N)O2`, for which the Potency was inactive: > 76.9 µM.
For `Cc1ccc(C(C(=O)NC2CCCCC2)N(Cc2cccnc2)C(=O)C2COc3ccccc3O2)o1` (configuration not stated), the Potency entry was “inactive”.
Regarding `CCCc1c(O)nc(SCc2ccccc2)[nH]c1=O`, the Potency is inactive: > 76.9 µM.
The value for `CCCc1cc(=O)n2[nH]c(NCc3c(Cl)cccc3Cl)nc2n1` was inactive: > 76.9 µM; that for `COCCNC(=O)CSc1nc(-c2ccc(OC)c(OC)c2)cc(C(F)(F)F)n1` was inactive: > 76.9 µM; that for `COc1ccc(-c2nc(C#N)c(N3CCOCC3)o2)cc1OC` was inactive: > 76.9 µM.
`COc1ccc(Cc2nnc(SC)[nH]c2=O)cc1OC`: the Potency is inactive: > 76.9 µM.
Next, `O=C(NC1CCCCC1)C1c2ccccc2C(=O)N1Cc1ccco1` (configuration not stated): inactive: > 76.9 µM; `COc1cccc(N2CCN(C(=O)c3ccc(N4C(=O)NC5CC4(C)Oc4ccccc45)cc3)CC2)c1` (configuration not stated): inactive: > 76.9 µM; `Cc1ccc(S(=O)(=O)NCC(=O)OCC(=O)c2cccs2)cc1`: inactive: > 76.9 µM.
For the molecule `O=C(CN(Cc1ccccc1)C(=O)c1ccco1)NCc1ccc(F)cc1`, the Potency is inactive: > 76.9 µM.
Next, `NC(=O)c1ccc(NC(=O)CCCc2nc(-c3ccccc3Cl)no2)cc1`: inactive: > 76.9 µM.
For `COc1ccccc1CNC(=O)C1CCCN(S(C)(=O)=O)C1` (configuration not stated), the Potency is inactive: > 76.9 µM.
Consider `CCCCCCOC(=O)C(C#N)c1nc2ccccc2nc1N1CCOCC1` (configuration not stated), for which the Potency was inactive: > 76.9 µM.
For `Cn1c(CN2CCCCC2)nc2cc(NC(=O)c3ccccc3)ccc21`, the Potency was inactive: > 76.9 µM.
On to `CC(C)(C)NC(=O)CSc1nnc(-c2ccco2)n1Cc1ccco1`, for which the Potency is inactive: > 76.9 µM.
With `O=C(COC(=O)C1CC(=O)N(c2ccc3c(c2)OCCO3)C1)NC1CCCc2ccccc21` (configuration not stated), the Potency is inactive: > 76.9 µM.
`CCC(C)n1c(SCC(=O)NC(=O)Nc2ccc3c(c2)OCCO3)nc2ccccc2c1=O` (configuration not stated): the Potency is inactive: > 76.9 µM.
Next, `Cc1ccc(N(CC(=O)NC2CCCC2)C(=O)CCCC(=O)Nc2ccccn2)cc1C`: inactive: > 76.9 µM; `COc1ccc(C(=O)N2CCc3cc(OC)c(OC)cc3C2)cc1OC`: inactive: > 76.9 µM; `O=C(CSc1ncnc2sc3c(c12)CCCC3)c1ccco1`: inactive: > 76.9 µM.
For the molecule `CC1CN(Cc2nc3c(c(=O)[nH]c(=O)n3C)n2CCCc2ccccc2)CC(C)O1` (configuration not stated), the Potency was inactive: > 76.9 µM.
The value for `Cn1c(C(=O)NCc2ccc3c(c2)OCO3)cc2sccc21` was inactive: > 76.9 µM; that for `COCCNC(=O)COC(=O)CSCc1nc2ccccc2s1` was inactive: > 76.9 µM.
The value for `O=S(=O)(NCc1cccnc1)c1cccs1` was inactive: > 76.9 µM.
